Experimental data: US20100247533A1, “TREATMENT WITH A HUMANIZED ANTI-EGFR IgG1 ANTIBODY AND IRINOTECAN” (priority 2009, published 2010)

System: A549 lung adenocarcinoma xenografts
Experiment: Animal survival study in vivo, A549 lung adenocarcinoma xenograft model
Parameters: species or system SCID beige mice
Description: Partially fucosylated GlycArt-mAb was provided as stock solution (c=11.3 mg/ml), in a buffer containing histidine, trehalose and polysorbate 20. The antibody stock solution was appropriately diluted in PBS prior to injection.
The antibody concentration was adjusted by dilution of the reconstituted stock solution prior to injection.
Irinotecan/CPT-11 (Campto®) was purchased as clinical formulation (20 mg/ml) from Pfizer Pharma GmbH, Karlsruhe, Germany. The antibody concentration was adjusted by dilution of the reconstituted stock solution prior to injection.
A549 human Non Small Cell Lung Cancer (NSCLC) cells were obtained from ATCC. The tumor cell line was routinely cultured in RPMI medium (PAA Laboratories, Austria) supplemented with 10% fetal bovine serum (PAA Laboratories, Austria) and 2 mM L-glutamine, at 37° C. in a water-saturated atmosphere at 5% CO2.
Passage 3 of A549 cells was used for in vivo injection. 2×10^6 cells in PBS were injected intravenously (i.v.).
Female SCID beige mice; age 7-8 weeks at arrival (purchased from Charles River, Sulzfeld, Germany) were maintained under specific pathogen-free conditions with daily cycles of 12 h light/12 h darkness according to committed guidelines (GV-Solas; Felasa; TierschG). […]
The primary parameter was survival. The data was statistically analyzed by log rank test.

B1: GlycArt-mAb: humanized anti-EGFR IgG1 antibody with heavy chain variable domain SEQ ID NO:38, light chain variable domain SEQ ID NO:39, human Ig gamma-1 constant region SEQ ID NO:40 (antibody, listed as Homo sapiens)
VH: QVQLVQSGAEVKKPGSSVKVSCKASGFTFTDYKIHWVRQAPGQGLEWMGYFNPNSGYSTYAQKFQGRVTITADKSTSTAYMELSSLRSEDTAVYYCARLSPGGYYVMDAWGQGTTVTVSS
VL: DIQMTQSPSSLSASVGDRVTITCRASQGINNYLNWYQQKPGKAPKRLIYNTNNLQTGVPSRFSGSGSGTEFTLTISSLQPEDFATYYCLQHNSFPTFGQGTKLEIKRT
chain: [about 350 residues with a human IgG1 Fc omitted]
modifications: partial fucosylation
p (log rank test), survival compared to vehicle control (antibodies 25 mg/kg i.p. every seven days, irinotecan 20 mg/kg i.p. four times, single agents or combinations): 0.0005
animal survival compared to vehicle control (single agents, antibodies 25 mg/kg i.p. every seven days (day 7-98), irinotecan 20 mg/kg i.p. day 7, 10, 14, 17, A549 cells injected i.v.): significantly prolonged animal survival
